# From ChEMBL document CHEMBL4888484, “Replenishing the malaria drug discovery pipeline: Screening and hit evaluation of the MMV Hit Generation Library 1 (HGL1) against asexual blood stage Plasmodium falciparum ,using a nano luciferase reporter read-out” (2022)
# Among all 150,000 compounds or so, about 540 (0.36%) showed an effect of 50% or more. The list shows a part of the results.
# System: Plasmodium falciparum
# Assay: Primary screen in NF54 nanoGlo assay, in single point, at 2uM, 72h; a lower Z score goes with more inhibition
# Assay type: functional, Erythrocyte
# Conditions: timepoint 72 hour
SMILES,% Inhibition [%],Z score
O=C(NCc1cccc(F)c1)N1CCC([C@@H](O)CCc2ccccc2)CC1,7,-0.92
CCC1CC(CC(=O)NC2CC(O)C2(C)C)CCO1 (stereo not given),-6,1.02
CN1CCO[C@@H](CNCc2cccc3ccccc23)C1,-9,1.25
C#CCN(Cc1nc2cc(Br)cnc2[nH]1)Cc1ccco1,6,-0.72
C[C@@H](CCc1ccccc1)NC(=O)C(=O)c1cccn1C,3,-0.49
COc1cc(NC(=O)N(C)[C@@H](C)Cc2ccsc2)ncn1,6,-0.77
CC(C)(C)n1nnc(Cn2cc(Cl)ccc2=O)n1,-2,0.41
Cc1nc(N(C)C2CCCCC2)ncc1[C@H](C)NC(=O)c1ccoc1C,-11,0.95
Cc1ccccc1OCC(O)CN1CCc2sccc2C1C (stereo not given),-4,0.75
O=C(CN(Cc1ccc(O)cc1)Cc1ccco1)NC1CCOCC1,0,-0.08
CC1CCCC(OCC(=O)NCCC(=O)N2CCCCCC2)C1 (stereo not given),-7,1.16
COc1ccc(NC(=O)Cn2nc3c4sc(N5CCCCC5)nc4ncn3c2=O)cc1,-7,0.66
Cc1ccc(Cc2ccccc2C(=O)N2CCN(C)C(=O)[C@@H]2C)cc1F,-6,1.18
N#Cc1ccc(NCc2ccc(N3CCNC(=O)C3)cc2)nc1,-5,0.51
Nc1nc(Cc2ccccc2)c(Br)c(=O)[nH]1,34,-0.46
Cc1cc(N(C)C)ccc1NC(=O)CCN1C(=O)c2ccccc2N2C(=O)CC[C@]12C,2,-0.43
CC(C)c1cnc(CN[C@@H](C)c2ccc(S(C)(=O)=O)c(F)c2)o1,-4,0.52
N[C@@H](CC(=O)O)Cc1cc(F)c(F)cc1F,-7,1.34
CC[C@H](C)C(=O)Nc1ccc(C(C)(C)C#N)cc1,-8,1.03
Cc1cccc(-c2ocnc2C(=O)N2CC[C@H](CO)[C@H](NC(=O)c3ccccc3)C2)c1,-13,1.71
Cc1nnc(C(=O)NCc2ccc(N)nc2)s1,0,0.05
CCNc1nc(C)c(C(=O)N(CC)[C@H]2COC[C@@H]2O)s1,-7,0.97
COc1ccc(F)cc1C(=O)CN1C(=O)CN(c2ccccc2)C1=O,-12,1.68
Cc1noc(C)c1CC(=O)Nc1ccnc(C2CCCC2)n1,-8,0.74
CC[C@H](C)n1cc(C(=O)NCc2cccc(C(F)(F)F)c2)c(=O)c(C(=O)N2CCCCCC2)c1,-13,1.81
COc1ccc(C[C@H](NC2CCOCC2)c2ccccc2)cc1OC,-7,0.61
CCC/C=C/c1ccc(NS(C)(=O)=O)nc1,-7,0.99
O=C(C1CCCC1)N1CCc2onc(-c3ccccc3)c2C1,-8,1.4

SMILES,% Inhibition [%],Z score
O=C(NCC1CCc2ccccc2CC1)Nc1ccn(CCc2ccncc2)n1,-6,0.92
Cc1cccc(C)c1NC(=O)CN1C[C@H]2CCS(=O)(=O)[C@H]2C1,-7,0.78
Cc1cnn(CCCN2C[C@@H]3CC[C@H]2CN(C(=O)c2ccccn2)C3)c1,0,0
COC(=O)CCC(=O)N1CCc2onc(-c3ccccc3F)c2C1,-22,1.9
CC(=O)N1CCN(C(=O)[C@H](C)NC(=O)c2cc3n(n2)CCCN(Cc2ccc(C)cc2)C3=O)CC1,-5,0.45
COC1(C)CN(c2nc(C)ncc2C)C1,-7,1.13
CCC(C)[C@H](NC(=O)NCc1ccccc1)C(=O)O (stereo not given in full),-3,0.4
Cc1ncc(C(=O)N2CCc3ccccc3C2)cn1,-21,3.17
COC[C@@H]1CCCN1CC(=O)Nc1ccc(Cl)cc1F,4,-0.77
Cc1nn(C)c(C)c1CCC(=O)N1CCC2(CC1)[C@H](O)C[C@@H]2OCCO,-3,0.38
O=C(NCCN1CCCCC1)Nc1ncn(C2CCCCC2)n1,-7,0.72
N#Cc1ccnc(N[C@H]2CCCCC23CCCC3)n1,1,-0.12
CC1CN(Cc2ccccc2)CC(C)C1NC(=O)N1CCC(CO)CC1 (stereo not given),6,-1.07
Cc1cc(-c2ccc(S(=O)(=O)NC3CCC(C)CC3)cc2)on1 (stereo not given),-9,1.69
O=C(CN1CCOC1=O)NCc1cc(COc2ccccc2)cs1,-12,1.63
Cc1ccc(C)c(NC(=O)[C@H](C)N2CCC(NS(=O)(=O)c3cccs3)CC2)c1,-1,0.1
CN1CCCOc2cccc(c2)[C@@H]2N(C(=O)CCS(C)(=O)=O)CC[C@]23C(=O)N(CC1=O)c1ccccc13,-17,1.91
CO[C@H]1[C@H](NC(=O)C(C)C)c2ccccc2C12CCN(Cc1ccc3ncccc3c1)CC2,-5,0.69
Cn1nc(-c2cnccn2)cc1CNC(=O)C(C)(C)C,11,-1.42
Cc1noc(C)c1CNCc1cccnc1,-7,0.71
Cc1cnc(C(=O)N2CCC3(CC2)C[C@H](CO)N(C(=O)c2ccccc2)C3)cn1,4,-0.46
O=C(N[C@@H](Cn1nccn1)c1ccccc1)c1cc(-c2ccccc2)n[nH]1,-4,0.69
C#CCCC1(CCC(=O)N2Cc3cccc(OC)c3C2)N=N1,-15,1.87
CCn1nccc1N1CCC[C@H](NC(=O)CCc2c(C)nn(C)c2C)C1=O,-4,0.57
CO[C@@H](C)CCOC(=O)c1ccc(Cl)cn1,-6,0.85
COc1ccccc1NCC(F)(F)F,1,-0.14
O=c1c2ccccc2ncn1Cc1noc(-c2ccc(Br)cc2)n1,-20,2.44
